Assay results: PubChem BioAssay AID1963576 (National Center for Advancing Translational Sciences (NCATS), 2024)
About 60 (0.1%) of roughly 46,000 compounds were called active. Not shown: some 3% with an inconclusive outcome. Calls come from the whole dose curve; as a rule, active = well fitted inhibition curve with a large enough effect; inconclusive = small, poorly fitted or top-dose-only effect; inactive = no such curve, though single readings can be large or run the other way. Some of the results follow.

Assay: Primary qHTS assay for Inhibitors of ovarian cancer metastasis using an organotypic tumor microenvironment (TME) model.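 For activity change, negative = inhibition: plate controls were DMSO wells for no effect and tomatine positive control wells for full effect.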 Note: nearly all actives have a fitted effect of over 65% in size.
Settings: SKOV3ip1-GFP adhesion/invasion on 3D omental model, fluorescence; series mostly up to 45.8 µM; activity change, negative = inhibition: at the top concentration
How it was run: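 Adhesion/invasion was scored as fixed GFP-labeled SKOV3ip1 cell counts (488/509 nm), normalized to DMSO and tomatine controls. Cancer cells in serum-free medium, with four compound doses (0.36-46 umol/L), sat 2 hr at RT then 16 hr at 37 C on a 48 hr fibroblast/mesothelial/ECM culture.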

Activity change, negative = inhibition, inactive:
O=C(CCC1N=C2c3ccccc3N=C(SCc3ccc(Cl)cc3)N2C1=O)NCc1cccs1 (stereo unspecified) -2.73%
COc1ccc(CCNc2ncnc3c2cnn3-c2ccc(C)c(Cl)c2)cc1 5.03%
Cc1ccc(NS(=O)(=O)c2ccc3oc(=O)c4ncn(C)c4c3c2)cc1C -7.28%
Cc1ccc(N2CCN(C(=O)c3cccn4c(=O)c5ccc(Cl)cc5nc34)CC2C)cc1 (stereo unspecified) 3.29%
Cc1ccc(S(=O)(=O)C(CNC(=O)C(=O)NCCc2ccc(Cl)cc2)c2ccco2)cc1 (stereo unspecified) 24.6%
CCC(C)NC(=O)c1cc2n(n1)CCCN(Cc1ccc(C)cc1)C2=O (stereo unspecified) 3.87%
COc1ccc(CCNS(=O)(=O)c2c(C)nc3sccn3c2=O)cc1OC -4.07%
O=C(Cc1ccc(F)cc1)NCCc1csc2nc(-c3ccccc3F)nn12 -3.64%
Cc1c2cnn(CC(=O)NCc3ccc(Cl)cc3)c(=O)c2c(C)n1Cc1ccc(F)cc1 1.17%
CCn1cc(C(=O)N2CCN(c3ccccc3)CC2)c(=O)c2cc(S(=O)(=O)N(C)C)ccc21 16.5%
COc1ccc(C(CNC(=O)c2oc3cc(C)c(C)cc3c2C)N2CCCCC2)cc1 (stereo unspecified) -9.98%
Cc1cc(C)cc(NC(=O)CSc2ccc(-c3cccs3)nn2)c1 -2.29%
Cc1cc(NS(=O)(=O)c2ccc(NC(=O)COc3ccccc3Br)cc2)no1 8.49%
CCOc1ccccc1NS(=O)(=O)c1ccc(N2CCCCS2(=O)=O)cc1 0.972%
O=C(NCCc1csc(-c2ccc(C(F)(F)F)cc2)n1)C(=O)Nc1ccc(F)c(Cl)c1 -0.457%
CN1CCN(c2nc3c(S(=O)(=O)c4ccc(Cl)cc4)nnn3c3ccsc23)CC1 2.57%
CC(=O)Nc1ccc(C)cc1-c1nc2ccccc2n(CC(=O)c2ccc(C)c(C)c2)c1=O -3.5%
CCc1ccc(NC(=O)Cn2c(=O)n(-c3ccccc3C)c(=O)c3c2c2cc(OC)ccc2n3C)cc1 1.99%
Cc1nc(-c2ccc(F)cc2)sc1CCNC(=O)c1cccs1 -8.58%
Cc1ccc(N(CC(=O)N2CCN(c3ccccc3)CC2)S(=O)(=O)c2c(C)noc2C)cc1 -8.3%
Cc1ccc(C)c(NC(=O)Cn2c(SCC(=O)NCc3ccccc3)nc3ccccc32)c1 -14.4%
CC(C)Oc1ccc(C(=O)NCC(c2ccc(N(C)C)cc2)N2CCc3ccccc32)cc1 (stereo unspecified) 3.81%
Cc1ccc(-c2noc(-c3nnn(CC(=O)Nc4ccc(C)c(Cl)c4)c3N)n2)cc1 -6.39%
CCN1CCN(C(c2ccccc2Cl)c2sc3nc(-c4ccco4)nn3c2O)CC1 (stereo unspecified) -1.04%
CCOc1ccc(NC(=O)Cn2nc3c(cc2=O)CC(C)CC3)cc1 (stereo unspecified) 4.23%
CCn1c(=O)c2sccc2n2c(CCC(=O)Nc3ccc(F)cc3)nnc12 -4.24%
COc1ccc2c(c1)c(N1CCCC1=O)c(C(=O)Nc1cc(C)c(Cl)cc1OC)n2C -9.61%
CCN(c1ccccc1)S(=O)(=O)c1nnc(NC(=O)C2CCCCC2)s1 -2.45%
O=C(Nc1ccc(Br)cc1)c1cc(S(=O)(=O)NC2CCCC2)ccc1F 3.27%
O=C(CCSCCc1ccccn1)Nc1ccc(Cl)cc1 0.898%
Cc1ccc2c(C)c(C(=O)N(Cc3ccc(N(C)C)cc3)Cc3ccco3)oc2c1C 0.75%
Cc1ccc(C)c(Cn2c(=O)n(-c3ccccc3)c(=O)c3c4c(sc32)CCCC4)c1 -18.5%
Cc1cc2oc(=O)c(CC(=O)O)c(C)c2c2occ(-c3ccccc3)c12 -0.551%
COc1ccc(CCN2C(=O)N(c3cccc(OC)c3)C(=O)C2CC(=O)Nc2ccccc2)cc1 (stereo unspecified) 11%
CCOC(=O)c1c(C)[nH]c(CCC(=O)NCc2cc(OC)c(OC)c(OC)c2)c1C -6.4%
Oc1c(C(c2ccccc2)N2CCCC2)sc2nc(-c3ccco3)nn12 (stereo unspecified) -6.16%
COc1ccc(-c2onc(C)c2C)cc1S(=O)(=O)NCCc1ccccc1 4.07%
COc1ccc(CNC(=O)CN2C(=O)CCn3nc(-c4cn(C)c5ccccc45)cc32)cc1 7.52%
CCNC(=O)CC1C(=O)N(c2ccc(C)cc2)C(=O)N1CCOC (stereo unspecified) -8.92%
CCOC(=O)c1c(S(=O)(=O)N2CCC(C(=O)Nc3ccc(C)c(Cl)c3)CC2)c(C)n(C)c1C 1.89%
COc1nnc(-c2ccc(N3CCCCC3)c(NC(=O)c3ccc(C)cc3)c2)c2ccccc12 28.6%
O=C(c1ccc2c(c1)N(Cc1cccc(Cl)c1)C(=O)c1ccccc1S2=O)N1CCC(Cc2ccccc2)CC1 (stereo unspecified) 2.82%
COc1ccc(OC)c(NC(=O)CSC2=Nc3ccccc3C3=NC(CC(=O)NCCc4ccccc4)C(=O)N23)c1 (stereo unspecified) 5.59%
CCOc1cccc(CNCCCSc2nnnn2C)c1 3.81%
O=S(=O)(c1ccc(-c2cnc(C3CC3)o2)cc1)N1CCN(c2ccc(F)cc2)CC1 0.82%
CCc1ccc(-c2cn3nc(CC)sc3n2)cc1 -22.2%
COc1ccccc1CNC(=O)Cn1cc2c(n1)-c1c(oc(C(=O)N3CCOCC3)c1C)CC2 -0.148%
COC(=O)c1sccc1S(=O)(=O)N(CC(=O)Nc1cccc(C)c1C)c1ccc(C)c(C)c1 -42.9%

outcome, inactive:
Cc1ccc(Nc2nc(N)nc(CSc3nc4ccccc4s3)n2)cc1
Cc1ccccc1Nc1nn2c(=O)c3ccc(C(=O)NCc4cccs4)cc3nc2s1
CCOC(=O)c1c(N)n(-c2ccc(CC)cc2)c2nc3ccccc3nc12
COc1ccc(S(=O)(=O)n2nc(C)c(S(=O)(=O)N3CCCCCC3)c2C)cc1C
O=C(CN1C(=O)CSc2ccc(S(=O)(=O)N3CCOCC3)cc21)NCCCN1CCCCC1
CCOc1ccc(N(CC(=O)Nc2ccc(OC)cc2)S(=O)(=O)c2ccc(Cl)cc2)cc1
CCOC(=O)c1[nH]c2c(c1Cc1ccccc1)C(=O)CC(c1ccccc1)C2 (stereo unspecified)
CCOC(=O)c1ccccc1NC(=O)N1CCC(CN2CCOCC2)CC1
Cc1ccc2c(c1)cc1c(=O)n(Cc3ccccc3Cl)nc(C)n12
CCOC(=O)Cc1ccc(NC(=O)NC(C)c2c(-n3cccc3)sc(C)c2C)cc1 (stereo unspecified)
O=C(c1cccc([N+](=O)[O-])c1)N1CCN(c2ccc(Nc3ccccc3)nn2)CC1
CCOc1ccc(NC(=O)CCCn2c(C)c3cnn(-c4ccccc4)c(=O)c3c2C)cc1
CCn1nc(C)c2c(-c3ccccc3)cc(=O)n(C(C)C(=O)NCCc3ccc(Cl)cc3)c21 (stereo unspecified)
